Out of some 360,000 compounds screened, about 7,500 (2.1%) were called active. Not shown: some 20% with an inconclusive outcome. Calls follow the shape of the dose curve; as a rule, active = well fitted inhibition curve with a large enough effect; inconclusive = small, poorly fitted or top-dose-only effect, or effect the other way; inactive = flat fitted curve, though single readings scatter. This is a selection; strong and weak results do not stand in their true shares.
Assay: Nrf2 qHTS screen for inhibitors; also: nearly all actives have a fitted effect of over 60% in size
Conditions: A549 ARE-Fluc reporter, luciferase luminescence, 18-24 h; series mostly up to 46 µM; activity change, negative = inhibition: at the top concentration
Method in brief: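 Reporter: ARE-Fluc in A549. Exposure: 18-24 h, 37 °C, 5% CO2, 5% FBS OPTI-MEM. Readouts: fluorescent cytotoxicity (CellTiter-Fluor), then luminescent Nrf2 signal after BugLite.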
% is scaled to controls: 0 for no effect and ±100 for the full control effect; potency is read from the fitted curve at half-maximal effect.

Structure (SMILES)	activity change, negative = inhibition	Potency
COc1ccc(NS(=O)(=O)c2nnc(NC(=O)c3ccccc3F)s2)cc1	inactive: 5.23%	
COc1ccc(/C=C2/CCOC2=O)cc1	inactive: 22.4%	
Cc1ccc(CN2C(=O)[C@H]3Cc4c([nH]c5ccccc45)C(C)(C)N3C2=O)cc1	inactive: 0.201%	
COc1ccccc1-n1cnc2c(c1=O)c1nc3ccccc3nc1n2-c1ccc(C)c(C)c1		active: 5.8 µM
Cc1ccc(NC(=O)Cn2nnc(C(=O)NCc3cccs3)c2N)cc1Cl	inactive: -9.95%	
Cc1c(N2C(=O)/C(=C/C3CC=CCC3)SC2=S)c(=O)n(-c2ccccc2)n1C (stereo unspecified)	inactive: -27.2%	
CC1CCN(CC(=O)N2CCCc3c2c(=O)oc2ccc(OCc4ccccc4)cc32)CC1	inactive: -20%	
Nc1cc(S(=O)(=O)Nc2ccccc2Cl)ccc1N1CCCCC1		active: 7.31 µM
NS(=O)(=O)c1ccc(NC(=O)c2cc(-c3cccs3)nc3ccccc23)cc1	inactive: 10.1% [at 9.27 µM]	
Cc1noc(C)c1-c1ccc2ncnc(NC(C)c3ccco3)c2c1 (stereo unspecified)	inactive: -25%	
COc1cc(CNCc2ccc(OC)cc2OC)cc(OC)c1		active: 7.31 µM
Cc1ccc(NC(=O)C2=CC(c3cccs3)=NS(=O)(=O)N2C)cc1	inactive: -22.7%	
CC(C)c1ccc2c(c1)CC[C@H]1[C@](C)(CN)CCC[C@]21C	inactive: 2.28%	
CCCCNC(=O)CCC(=O)NNc1nc2ccccc2c2nc(-c3ccccc3)nn12	inactive: 11.2%	
O=C1OC[C@@H]2CCCN2C(=O)[C@@H](CC(=O)N(CCO)Cc2ccccc2)C/C=C\CC[C@H]1Cc1ccc(F)cc1	inactive: -13.4%	
CCOc1ccc(N=C(/C(C(=O)C(=O)N2CCOCC2)=C(/O)c2ccccc2)c2ccccc2)cc1	inactive: 20.4%	
N#C/C(=C\c1ccc(-c2ccccc2C(=O)O)o1)c1nc2ccccc2[nH]1	inactive: 3.7%	
Cc1nnc(Sc2c(-c3ccccc3)c3ccc(Cl)cc3[nH]c2=O)s1		active: 18.4 µM
C=C1CCN([C@@H](CC(C)C)C(=O)NCc2ccc(Cl)c(Cl)c2)S(=O)(=O)c2ccccc21	inactive: -16.1%	
Cc1ccc(-c2ccc(=O)n(Cc3ccc(F)cc3)n2)cc1	inactive: -14.3%	
CC(=O)C1=C(C)N(Cc2ccccc2)C(=O)N[C@@H]1c1cccc(C(F)(F)F)c1	inactive: -15.3%	
CCCN(CCC)CCCNC(=O)C1CCC(CNS(=O)(=O)c2cccc3nsnc23)CC1 (stereo unspecified)	inactive: 5.95%	

Structure (SMILES)	activity change, negative = inhibition	Potency
Cc1ccc(C(C)(C)C)cc1S(=O)(=O)N1CCC(C(=O)N2CCN(c3ccc(O)cc3)CC2)CC1		active: 9.2 µM
NC(=O)C1=C[C@@H](C2CCCCC2)C[C@@H](OCc2ccc(CO)cc2)O1	inactive: 0.627%	
CCC(CC)C(=O)Nc1ccc(-c2cn3cccnc3n2)cc1	inactive: -19.7%	
C=CC[C@@H](CC(=O)N[C@H](CO)Cc1ccccc1)C(=O)N[C@@H](COC(=O)[C@@H](CC=C)CC(=O)OC(C)(C)C)Cc1c[nH]c2ccccc12	inactive: 8.47%	
CC(C)(C)OC(=O)C[C@H]1C/C=C\C[C@H](CC(=O)N[C@H](CO)Cc2ccccc2)C(=O)N[C@@H](Cc2ccccc2)COC1=O	inactive: 0.148%	
C[C@H](NC(=O)c1nc[nH]c1C(=O)OCc1ccccc1)c1ccccc1	inactive: -28.1%	
Cc1ccc(S(=O)(=O)Nc2cccc(C(=O)NC3CCN(Cc4ccccc4)CC3)c2)cc1F		active: 10.3 µM
Cn1c(=O)cc(OCC(=O)N2CCN(c3ccccc3F)CC2)c2ccccc21	inactive: 10.7%	
C#Cc1ccc([C@H]2C=C(C(=O)N3CCN(Cc4ccc5c(c4)OCO5)CC3)O[C@@H](OCC)[C@@H]2CCCO)cc1	inactive: -16.9%	
COC(=O)/C(=C1\Oc2ccc(C(C)(C)C)cc2S1)C(F)(F)F	inactive: 20.5%	
C[c-]1[c-](C)[c-](C)[c-](C)[c-]1C.[Fe].c1cc2nccc(N3CCCC3)[c-]2c1 (stereo unspecified)	inactive: -20.1%	
O=C(COCc1cc(-c2ccc3c(c2)OCO3)on1)N1CCN(c2cccc(C(F)(F)F)c2)CC1	inactive: -26%	
COc1ccc(CN2C(=O)c3ccccc3C2C(=O)NC2CCCCCC2)c(OC)c1 (stereo unspecified)	inactive: -18.8%	
Cc1ccc2c(c1)sc1nc(=O)n(-c3cccc(Cl)c3)c(=O)n12	inactive: 4.31%	
COc1cc2nc(N3CCN(C(=O)[C@@H]4CCCO4)CC3)nc(N)c2cc1OC	inactive: -5.69%	
CN1C(=O)S/C(=C\c2ccccc2OCc2ccc(C(=O)O)cc2)C1=O	inactive: -23.3%	
CCOC(=O)c1ccc(NC(=O)C2CCCN(c3cnccn3)C2)cc1 (stereo unspecified)	inactive: 1.16%	
COc1ccc(CNS(=O)(=O)c2csc(C(N)=O)c2)cc1OC	inactive: -1.54%	
O=C(Nc1ccccc1)C1=C[C@@H](c2ccc(C(F)(F)F)cc2)C[C@@H](OCCCCO)O1	inactive: 25.2%	
O=C1N=C(N2CCOCC2)S/C1=C\c1ccc(-c2ccccc2Cl)o1	inactive: -3.47%	
Cc1ccc(S(=O)(=O)NC(C(=O)OCC(=O)NC(=O)c2cccn2C)C(C)C)cc1 (stereo unspecified)	inactive: 6.3%	
Cc1cc(C)cc(NC(=O)NCC2CCN(Cc3cc(C)ccc3C)CC2)c1	inactive: 8.93%	

Structure (SMILES)	activity change, negative = inhibition	Potency
COc1ccc(-n2c(=O)c3c(C)c(C)sc3n(Cc3ccc(F)cc3)c2=O)c(OC)c1	inactive: -7.91%	
CCN1C(=O)[C@@H]2[C@@H](c3ccc(-c4ccc(Cl)c(Cl)c4)c(OC)c3)N3CCCC[C@@]3(C(=O)OC)[C@@H]2C1=O	inactive: -28.6%	
Cc1c(C)n(C)c2ccc(C(=O)NCCCN3CCCCC3)cc12	inactive: 0.29%	
O=C1Nc2ccc(Br)cc2/C1=N\N=C\C1=C(N2CCOCC2)C(=C/c2ccccc2)/CC1	inactive: -0.468%	
CC1(C2CC2)NC(=O)N(CC(=O)N2CCN(c3cccc(C(F)(F)F)c3)CC2)C1=O (stereo unspecified)		active: 11.6 µM
NC(=O)OCC(COC(N)=O)c1ccccc1	inactive: 1.92%	
CC(=O)O[C@]1(C(C)=O)CCC2C3C=C(C)C4=CC(=O)CC[C@]4(C)C3CC[C@@]21C (stereo partly specified)		active: 0.259 µM
Cc1ccccc1C(=O)Nc1nnc(S(=O)(=O)N2CCCCCC2)s1	inactive: 19.1%	
COc1ccc(Cl)cc1NC(=O)c1sc2nc(C)nc(N3CCOCC3)c2c1C		active: 20.6 µM
C[C@@H]1CC[C@@]2(O[C@@H](CCO)C[C@@H](O)[C@@H]2O)O1	inactive: 15%	
CN1C(=O)Cc2cc(S(=O)(=O)NCCc3ccccc3)ccc21	inactive: 29.7%	
CC(=O)c1ccc(N2CCN(S(=O)(=O)c3ccc(-c4cc(C)no4)s3)CC2)cc1	inactive: 4.57%	
CCOC(=O)C1CCN(S(=O)(=O)c2ccc3c(c2)NC(=O)C(C)C(=O)N3)CC1 (stereo unspecified)	inactive: -7.22%	
CCCCNC(=O)CCc1c(C)nc2c(c(C)nn2-c2ccccc2)c1C	inactive: -24.2%	
O=C1S/C(=C/c2ccccc2)C(=O)N1CC(O)Cn1c2ccccc2c2ccccc21 (stereo unspecified)	inactive: 12.4%	
Cc1sc2ncnc(N3CCN(c4ncccn4)CC3)c2c1C		active: 14.6 µM
Cc1cccc(C)c1Nc1c(-c2ccc(N3CCOCC3)cc2)nc2ncccn12	inactive: -10.5%	
CC(=O)c1ccc(NS(=O)(=O)c2ccc(C(C)(C)C)cc2)cc1		active: 8.2 µM
O=C(C1=C[C@@H](c2csc3ccccc23)C[C@@H](OCCCCO)O1)N1CCN(Cc2ccc3c(c2)OCO3)CC1	inactive: -15.1%	
Cc1cc(C)nc(NS(=O)(=O)c2ccc(N/C=C/C(=O)c3ccc(Cl)cc3)cc2)n1	inactive: -3.67%	
CC1=C/C(=C(\c2ccc(O)c(C)c2)c2ccccc2S(=O)(=O)O)C=CC1=O	inactive: 5.92%	
COc1ccc(N2C(=O)c3ccccc3C2=O)cc1	inactive: 1.39%	

Structure (SMILES)	activity change, negative = inhibition	Potency
O=C(O)CSCC(=O)Nc1ccc(C2CCCCC2)cc1		active: 5.17 µM
CCNC(=S)N(CCc1cccc(C)c1)Cc1cc2cc(OC)c(OC)cc2[nH]c1=O		active: 23.1 µM
CCCC1=NN(c2ccc([N+](=O)[O-])cc2)C(=O)/C1=C/N(C)C	inactive: 16.1%	
Cc1ccc(N(C)C(=O)CC(C)S(=O)(=O)c2ccc3c(c2)NC(=O)CO3)cc1 (stereo unspecified)	inactive: 13.9%	
COc1ccc(C2C3=C(COC3=O)Oc3cc4c(cc32)OCO4)cc1OC (stereo unspecified)	inactive: 18.3%	
COC(=O)C1=C(C(=O)OC)[C@]2([C@@H]3CC=CCN[C@@H](Cc4ccccc4)C(=O)N3Cc3ccccc3)C=C[C@H]1O2	inactive: -15.2%	
CN(c1ccccc1)S(=O)(=O)c1cccc(NC(=O)C2=NN(c3ccccc3)C(=O)CC2)c1		active: 20.6 µM
CCCCN(C)CCNC(=O)C1CCCN(S(=O)(=O)c2cccc3nsnc23)C1 (stereo unspecified)	inactive: 15.7%	
CNC(CC(C)C)C(=O)NC1C(=O)NC(CC(N)=O)C(=O)NC2C(=O)NC3C(=O)NC(C(=O)NC(C(=O)O)c4cc(O)cc(O)c4-c4cc3ccc4O)C(O)c3ccc(c(Cl)c3)Oc3cc2cc(c3OC2OC(CO)C(O)C(O)C2OC2C[C@](C)(N)C(O)C(C)O2)Oc2ccc(cc2Cl)C1O (stereo partly specified)	inactive: 9.27%	
O=C1N[C@H](Cc2c[nH]c3ccccc23)COC(=O)[C@H](Cc2ccc(F)cc2)C/C=C\C[C@H]1CC(=O)N(CCO)Cc1ccccc1	inactive: -16.1%	
COc1cc(/C=N\Nc2nc3ccccc3[nH]2)cc(OC)c1OC		active: 5.8 µM
CCOC(=O)[C@@H]1[C@H]2COc3cc(OC)ccc3[C@@H]2N2C(=O)N(c3cccc(F)c3)C(=O)[C@]12C	inactive: -10%	
COc1ccc(OC)c(C2=NS(=O)(=O)N(C)C(C(=O)Nc3ccc(C(C)=O)cc3)=C2)c1	inactive: 3.54%	
CC(NC(=O)COc1ccccc1)C(=O)OCC(=O)c1cc2ccccc2o1 (stereo unspecified)	inactive: -11.7%	
O=C(NCc1ccccc1)C1=C[C@H](c2ccc(Br)cc2)C[C@H](OCc2ccc(CO)cc2)O1	inactive: 1.11%	
COc1cccc(C2C=C(c3ccccc3)Nc3c(C(=O)Nc4ccccc4)cnn32)c1OC (stereo unspecified)		active: 2.31 µM
COC(=O)[C@@]12CCCCN1[C@H](c1ccc(-c3ccc(C(C)=O)cc3)cc1)[C@H]1C(=O)N(C)C(=O)[C@H]12	inactive: -10.8%	
COc1ccc(NCc2nc3ccccc3n2CCOc2ccc(C)cc2)cc1	inactive: 6.81% [at 9.27 µM]	
COc1ccc(C)cc1NC(=O)CN1C(=O)COc2ccc(S(=O)(=O)N3CCCCCC3)cc21	inactive: -7.7%	
CCCOc1ccccc1C1CC(=O)Nc2cc3c(cc21)OCCO3 (stereo unspecified)		active: 20.6 µM

— PubChem BioAssay AID504444 (National Center for Advancing Translational Sciences (NCATS), 2011)
